# Data taken from publication PMC6919601, “Identification of Plasmodium dipeptidyl aminopeptidase allosteric inhibitors by high throughput screening” (PLoS ONE, 2019).
# Screen size: about 110,000 compounds; about 230 (0.21%) showed an effect of 50% or more. The list shows a part of the results.
# Target: DPAP1 (Plasmodium falciparum, UniProt Q8IIJ9)
# Test: primary screen, percent inhibition; read by cleavage of a fluorogenic dipeptide substrate; higher = more effect of the substance
# Set-up: species or system P. falciparum D10 trophozoite lysates; single well
# 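Further: 30 min substrate incubation versus DMSO and 10 µM JCP410 controls.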
# DPAP1, sequence (Q8IIJ9 whole entry, looked up): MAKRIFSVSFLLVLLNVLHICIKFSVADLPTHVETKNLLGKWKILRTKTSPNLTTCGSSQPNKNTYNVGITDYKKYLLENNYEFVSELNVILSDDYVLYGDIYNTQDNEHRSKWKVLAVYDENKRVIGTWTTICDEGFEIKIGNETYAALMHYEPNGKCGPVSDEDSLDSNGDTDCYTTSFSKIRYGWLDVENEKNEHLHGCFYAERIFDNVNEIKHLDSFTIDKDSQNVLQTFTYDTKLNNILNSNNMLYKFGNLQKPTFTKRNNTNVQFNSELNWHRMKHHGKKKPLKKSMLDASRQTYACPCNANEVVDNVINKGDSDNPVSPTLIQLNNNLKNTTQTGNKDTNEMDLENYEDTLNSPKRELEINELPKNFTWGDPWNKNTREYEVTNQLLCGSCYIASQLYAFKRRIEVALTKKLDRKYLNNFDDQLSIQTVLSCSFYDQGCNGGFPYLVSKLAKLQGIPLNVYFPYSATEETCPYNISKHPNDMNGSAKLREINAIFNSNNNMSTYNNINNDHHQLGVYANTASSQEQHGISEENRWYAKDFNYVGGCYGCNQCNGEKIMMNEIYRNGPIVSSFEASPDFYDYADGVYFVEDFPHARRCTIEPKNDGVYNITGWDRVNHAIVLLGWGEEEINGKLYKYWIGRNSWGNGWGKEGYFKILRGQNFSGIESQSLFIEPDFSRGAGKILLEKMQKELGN
row,SMILES,% Inhibition @ 10 uM [%]
1,COc1ccc(OC)c(NC(=O)c2ccc(Oc3ccccc3)cc2)c1,-5.54
2,CN(C)S(=O)(=O)c1ccc(C(=O)NCCSc2c[nH]c3ccccc23)cc1,2.64
3,Cc1cc(NS(=O)(=O)c2ccc(NC(=O)c3ccc(C(C)C)cc3)cc2)nc(C)n1,-4.63
4,Cc1ccc(CCNC(=O)C2CCCN(S(C)(=O)=O)C2)cc1 (stereo not drawn),0.514
5,Cc1ccc2[nH]c3c(c2c1)CCCC3(C)NC(N)=O (stereo not drawn),-4.26
6,Cc1cc(-c2ccc(C)c(S(=O)(=O)N3CCN(c4ncccn4)CC3)c2)on1,2.24
7,CCOC(=O)N1CCN(c2nc(-c3cccc(Cl)c3)c3c(n2)-c2ccccc2OC3)CC1,-1.06
8,O=C(CSCc1cccc(Br)c1)N1CCN(c2ccccc2)CC1,-3.66
9,Cc1cc(NC(=O)c2cc3nc(-c4ccco4)cc(C(F)(F)Cl)n3n2)no1,-1.57
10,O=C(NCc1ccco1)C1c2ccccc2C(=O)N(C2CCCC2)C1c1cccs1 (stereo not drawn),4.36
11,Cc1c(CCC(=O)N2CCCC2)c(=O)oc2c(C)c3occ(C(C)(C)C)c3cc12,7.17
12,Cc1cc(C)c(C(=O)c2ccc(C(=O)NC(C)(C)C)cc2)c(C)c1,-3.79
13,CC(NC(=O)c1ccccc1)c1ccc(Cl)cc1 (stereo not drawn),-3.27
14,CCOc1ccc2c(c1)-c1c(sn(-c3ccc(C(C)C)cc3)c1=S)C(C)(C)N2,-2.48
15,N#CC1(NC(=O)[C@H](CC2CCCCC2)N[C@@H](c2cccc(-c3ccccc3)c2)C(F)(F)F)CC1,-4.82
16,O=c1oc2ccc(Br)cc2cc1-c1nc2ccccc2o1,5.42
17,CCOc1ccc(C2C3=C(O)CC(C)(C)CC3=Nc3nc4ccccc4n32)cc1OC (stereo not drawn),-5.19
18,CS(=O)(=O)c1ncc(Cl)c(C(=O)N(Cc2ccccc2)Cc2ccco2)n1,-4.64
19,COc1cc(C2CC(=O)NC3=C2C(=O)CC(C)(C)C3)ccc1OC(C)C (stereo not drawn),-4.16
20,CCc1nnc(NS(=O)(=O)c2ccc(NC(=O)c3ccc(F)c(F)c3)cc2)s1,-3.93
21,CCOC(=O)c1cc2[nH]c3c(c2cc1Cl)CCCC3,6.31
22,CC1(C)CC(=O)C2=C(C1)N(c1cccnc1)C(N)=C(C#N)C2c1ccc(Cl)cc1Cl (stereo not drawn),-2.87
23,CCOc1ccc2nc(N3CCC(C(=O)NCc4ccccn4)CC3)sc2c1,0.137
24,NC(=O)C1CCN(C(=O)Cn2ncc3c4ccccc4n(Cc4cccc(Cl)c4)c3c2=O)CC1,3.4
25,CC(=O)c1cccc(NC(=O)COc2ccc(Br)cc2C)c1,2.95

row,SMILES,% Inhibition @ 10 uM [%]
1,O=S(=O)(NCc1ccc(CNS(=O)(=O)c2ccccc2)cc1)c1ccccc1,0.389
2,O=C(O)C1CC(=O)N(CCc2ccccc2)/C(=N/CCc2ccccc2)S1 (stereo not drawn),5.12
3,CC1(C)CCCC(C)(C)N1CC(O)COCCOc1ccc(Br)cc1 (stereo not drawn),2.84
4,CCC(C)Nc1nc(Nc2ccc([N+](=O)[O-])cc2)nc(OC(C(F)(F)F)C(F)(F)F)n1 (stereo not drawn),-2.51
5,c1ccc(Cc2cn3c(-c4ccccc4)cnc3s2)cc1,2.26
6,COc1ccc(CNC(=O)c2c(C)cc(=O)oc2C)cc1,-2.26
7,COc1ccc(CNC2CCCC2)c2ccccc12,-1.15
8,Cn1c(=O)c2nc(N)[nH]c2n(C)c1=O,1.84
9,CN(C)c1ccc(/C=C2\C(=O)N(c3ccccc3)N=C2C(=O)O)cc1,1.91
10,CCN(CC)CCNc1nc(C)cc(COC)c1C(N)=O,7.99
11,CCOC(=O)N1CCN(S(=O)(=O)c2c(C)nc(O)nc2O)CC1,-5.76
12,CCOC(=O)C1=C(CN2CCN(Cc3ccc4c(c3)OCO4)CC2)NC(=O)NC1c1ccc(F)cc1 (stereo not drawn),5.1
13,O=C(Nc1ccc(Sc2nc3ccccc3s2)c(Cl)c1)c1cc(Cl)cc(Cl)c1O,10.2
14,CCCCc1ccc(C(=O)N[C@@H](CC(C)C)C(=O)NCC#N)cc1,-1.41
15,Cc1cccc(NC(=O)CN2C(=O)N/C(=C/c3cc(C)n(-c4cc(C)ccn4)c3C)C2=O)c1,2.98
16,C=CCc1cc(/C=C/c2ccc3c(c2)OCO3)c(O)c(OC)c1,-2.86
17,O=C(O)/C(=C/C=C/c1ccccc1)NC(=O)c1ccccc1,-6.69
18,O=C(NCCn1ccc2ccccc21)c1ccc(-c2ccccc2)cc1,0.205
19,O=S(=O)(NCc1ccccc1Cl)c1c[nH]cn1,1.23
20,O=C(O)c1ccc(N2C(=O)C3C4c5ccccc5C(c5ccccc54)C3C2=O)cc1 (stereo not drawn),4.82
21,O=C(O)CCCNC(=O)c1cn(-c2ccccc2)nc1-c1ccccc1,3.98
22,Cc1cc(O)c(C(=O)/C=C/c2ccccc2)c(=O)o1,1.63
23,CCN(CC)CCNC(=O)c1cnn(C)c1C1CCN(C(=O)OC(C)(C)C)CC1,0.536
24,COCC(C)NCc1cccc(C(F)(F)F)c1 (stereo not drawn),-3.32
25,CN(CCc1ccccn1)C1CCCCCC1,-0.0908

row,SMILES,% Inhibition @ 10 uM [%]
1,Cc1ccc2c(CNCCc3ccccc3Cl)c(C(=O)O)n(Cc3ccc(F)cc3Cl)c2c1,5.12
2,CN1C(=O)C(C2(C#N)CCCCC2)C(=O)N(C)C1=O,-2.42
3,CCN1CCCC1CNC(=O)CCc1nnc2n(CCc3ccccc3)c(=O)c3ccccc3n12 (stereo not drawn),-0.692
4,Cc1nn(-c2ccc(F)cc2)c(-n2cccc2)c1C(=O)NCCN(C)C,-7.44
5,CCOc1ccccc1C1=NC(C(F)(F)F)(C(F)(F)F)N=C(N(C)C)O1,-5.4
6,O=C(O)CCCCCNCc1ccccc1,-7.57
7,COCc1cc(C)nc(N)c1C(=O)NCC12CC3CC(CC(C3)C1)C2,-1.17
8,Cc1cc(C)n(C(=O)c2cc(Cl)nc3ccccc23)n1,-5.28
9,CC(C)(C)NC(=O)c1oc2ccccc2c1NC(=O)c1c(F)cccc1F,1.06
10,COc1cccc(C(=O)N2c3ccccc3C(N(C(C)=O)c3ccccc3)CC2C)c1 (stereo not drawn),0.851
11,N#CCc1ccc(NC(=O)c2ccccc2F)cc1,-3.72
12,CCN1C(=O)c2ccc(F)cc2C1=O,0.962
13,COc1cc(OC)nc(NC(=O)CSc2nc3nc(C)cc(C)n3n2)n1,1.67
14,Cc1cnc(C)c(NC2CCCC2)n1,-4.8
15,CCC(=O)CC(O)c1ccc([N+](=O)[O-])cc1 (stereo not drawn),1.49
16,COc1ccccc1NC1=C(Cl)C(=O)N(c2cc(Cl)ccc2OC)C1=O,2.36
17,COc1ccccc1N1CCN(C(=O)CCc2ccccc2)CC1,-2.17
18,COc1ccc(N2C(=O)C(Cl)=C(Nc3cccc(Cl)c3)C2=O)cc1,-4.48
19,CC(=O)N1CCn2c1nc(N(C)C)nc2=O,5.2
20,CCOC(=O)N1CCC(Nc2cc(C)c(C#N)c3nc4ccccc4n23)CC1,-3.75
21,CCSc1ncc(Cl)c(C(=O)Nc2nnc(C(C)C)s2)n1,-2.85
22,O=C(NC1CCCCC1)C1CCCN(S(=O)(=O)c2cccc3cccnc23)C1 (stereo not drawn),-12.4
23,COc1ccc(C2C(C#N)=C(N)Oc3[nH]nc(C(C)(C)C)c32)cc1 (stereo not drawn),-0.661
24,Cc1nc2ccc(S(=O)(=O)NC(C(=O)N3CCC(C)CC3)C(C)C)cc2s1 (stereo not drawn),-9.07
25,CCOc1ccccc1CN1CCN(C)CC1,-1.86

row,SMILES,% Inhibition @ 10 uM [%]
1,Fc1ccccc1-c1nnc(-c2cccc(C(F)(F)F)c2)o1,-4.3
2,N#Cc1c(C(F)(F)F)cc(-c2ccccc2)nc1SCc1nc(N)nc(N2CCOCC2)n1,5.18
3,O=C1CC(Nc2ccccc2)=NN1c1ccccc1,2.45
4,CCCC(=O)Nc1ccc(C=C2C(=O)c3ccccc3C2=O)cc1,1.4
5,COc1cc(C2C3=C(O)CC(C)(C)CC3=Nc3nc4ccccc4n32)cc(OC)c1OC (stereo not drawn),-1.62
6,CCCNC(=O)c1cnn2c(C)c(Cc3ccc(Cl)cc3)c(C)nc12,-2.14
7,Cc1cc(C)c2nc(Nc3nc(C)cc(C)n3)nc(C)c2c1,9.41
8,C=CCn1c(SCCCC)nc2c1c(=O)n(C)c(=O)n2C,-6.38
9,CCOC(=O)C1CCCN(Cc2ccc(OC)c(Br)c2)C1 (stereo not drawn),-0.0404
10,Cc1cc2nc(-c3cccc(NC(=O)Cn4cnc5c(=O)n(C)c(=O)n(C)c54)c3)oc2cc1C,-2.28
11,CC(C)CCNC(=O)Cn1cnc2onc(-c3ccc(F)cc3)c2c1=O,0.535
12,CCOc1ccc(C(=O)N2CCN(c3ccc(N4CCOCC4)nn3)CC2)cc1OCC,-7.13
13,COc1ccc(C(=O)Nc2ccccc2C(=O)N2CCC(C)CC2)cc1,-4.14
14,COc1ccc(C(=O)N/C(=C/c2ccc(Br)cc2)C(=O)NC(C)(C)C)cc1,-0.988
15,Cc1noc(C)c1CCN1CNc2c(c(=O)n(C)c(=O)n2C)C1,-4.98
16,O=C(CS(=O)(=O)c1ccc2ccccc2c1)N1CCCCCC1,-9.39
17,COc1cccc(NC(=O)COc2ccc3ccccc3c2Br)c1,-2.56
18,NC(=O)COc1cccc2cccnc12,3.74
19,O=C(Nc1ccc(C(F)(F)F)cc1)C1CCN(S(=O)(=O)c2ccc(Cl)cc2)CC1,9.97
20,CC(C)(C)c1ccccc1OCCCN1CCCCC1,3
21,Cc1ccc(C(C)C)c(OCC(=O)c2c(O)oc3ccccc3c2=O)c1,0.0539
22,c1csc(CCN2CCC3(CC2)OCCO3)c1,-2.03
23,CCOc1ccc(C(=O)NC2CCCCCC2)cc1,4.38
24,Fc1ccc(CC2NCCn3cccc32)cc1 (stereo not drawn),3.18
